This is one part of the list. The list includes weakly bound sequences.
What follows are sequences tested against T1, MBP-FoxP3dN (UniProt Q99JB6) (assay: PD-seq (MBP pull-down with sequencing)). Conditions: 20 mM Tris-HCl pH 7.5, 100 mM NaCl, 1.5 mM MgCl2, 0.4 uM protein, 0.1 uM dsDNA library, 30 min, room temperature, amylose pull-down; high values mean tight binding; double strand, one strand shown.
T1 sequence: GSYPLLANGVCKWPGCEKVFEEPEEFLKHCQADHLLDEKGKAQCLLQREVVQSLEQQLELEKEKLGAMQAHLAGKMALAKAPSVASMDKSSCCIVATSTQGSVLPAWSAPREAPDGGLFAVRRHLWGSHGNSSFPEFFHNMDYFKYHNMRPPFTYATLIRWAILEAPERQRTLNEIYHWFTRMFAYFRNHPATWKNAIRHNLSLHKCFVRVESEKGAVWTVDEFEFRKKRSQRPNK

Sequence | binding signal (RPM ratio (pull-down/input))
GATGATTGTTCTCCCAGCTGATGAATTAGAGGGCTCGAGTAAACAAATTTTCCTAATCTTTCTGTTCAAGCGCCATCTAC | 0.304
GATGATTGTTCTCCCAGCTGATGAATTCGTATAGTCGAGTAAACAAATTTTCCTAATCTTTCTGTTCAAGCGCCATCTAC | 1.39
GATGATTGTTCTCCCAGCTGATGAATTTAGAGCGTCGAGTAAACAAATTTTCCTAATCTTTCTGTTCAAGCGCCATCTAC | 0.533
GATGATTGTTCTCCCAGCTGATGAATTACGCTATTCGAGTAAACAAATTTTCCTAATCTTTCTGTTCAAGCGCCATCTAC | 2.21
GATGATTGTTCTCCCAGCTGATGAATTCTCCTCGTCGAGTAAACAAATTTTCCTAATCTTTCTGTTCAAGCGCCATCTAC | 0.201
GATGATTGTTCTCCCAGCTGATGAATTGTTGTTATCGAGTAAACAAATTTTCCTAATCTTTCTGTTCAAGCGCCATCTAC | 6.7
GATGATTGTTCTCCCAGCTGATGAATTCACGAAATCGAGTAAACAAATTTTCCTAATCTTTCTGTTCAAGCGCCATCTAC | 0.244
GATGATTGTTCTCCCAGCTGATGAATTCAAGGAATCGAGTAAACAAATTTTCCTAATCTTTCTGTTCAAGCGCCATCTAC | 0.188
GATGATTGTTCTCCCAGCTGATGAATTGCAGATGTCGAGTAAACAAATTTTCCTAATCTTTCTGTTCAAGCGCCATCTAC | 0.708
GATGATTGTTCTCCCAGCTGATGAATTCACTATTTCGAGTAAACAAATTTTCCTAATCTTTCTGTTCAAGCGCCATCTAC | 0.483
GATGATTGTTCTCCCAGCTGATGAATTCTGATTTTCGAGTAAACAAATTTTCCTAATCTTTCTGTTCAAGCGCCATCTAC | 1.27
GATGATTGTTCTCCCAGCTGATGAATTTTGTGCATCGAGTAAACAAATTTTCCTAATCTTTCTGTTCAAGCGCCATCTAC | 2.27
GATGATTGTTCTCCCAGCTGATGAATTTTCAGTATCGAGTAAACAAATTTTCCTAATCTTTCTGTTCAAGCGCCATCTAC | 0.403
GATGATTGTTCTCCCAGCTGATGAATTCGGTCCATCGAGTAAACAAATTTTCCTAATCTTTCTGTTCAAGCGCCATCTAC | 0.372
GATGATTGTTCTCCCAGCTGATGAATTTATCAACTCGAGTAAACAAATTTTCCTAATCTTTCTGTTCAAGCGCCATCTAC | 0.865
GATGATTGTTCTCCCAGCTGATGAATTATCGTAATCGAGTAAACAAATTTTCCTAATCTTTCTGTTCAAGCGCCATCTAC | 0.762

Sequence | binding signal (RPM ratio (pull-down/input))
GATGATTGTTCTCCCAGCTGATGAATTGATTATATCGAGTAAACAAATTTTCCTAATCTTTCTGTTCAAGCGCCATCTAC | 0.905
GATGATTGTTCTCCCAGCTGATGAATTCTCACGATCGAGTAAACAAATTTTCCTAATCTTTCTGTTCAAGCGCCATCTAC | 0.235
GATGATTGTTCTCCCAGCTGATGAATTAGATTACTCGAGTAAACAAATTTTCCTAATCTTTCTGTTCAAGCGCCATCTAC | 2.62
GATGATTGTTCTCCCAGCTGATGAATTCAAGGGATCGAGTAAACAAATTTTCCTAATCTTTCTGTTCAAGCGCCATCTAC | 0.208
GATGATTGTTCTCCCAGCTGATGAATTCGGACGATCGAGTAAACAAATTTTCCTAATCTTTCTGTTCAAGCGCCATCTAC | 0.211
GATGATTGTTCTCCCAGCTGATGAATTGTCGACGTCGAGTAAACAAATTTTCCTAATCTTTCTGTTCAAGCGCCATCTAC | 0.381
GATGATTGTTCTCCCAGCTGATGAATTTGTTTGATCGAGTAAACAAATTTTCCTAATCTTTCTGTTCAAGCGCCATCTAC | 5.99
GATGATTGTTCTCCCAGCTGATGAATTCTCAATATCGAGTAAACAAATTTTCCTAATCTTTCTGTTCAAGCGCCATCTAC | 0.396
GATGATTGTTCTCCCAGCTGATGAATTCTACCTGTCGAGTAAACAAATTTTCCTAATCTTTCTGTTCAAGCGCCATCTAC | 0.267
GATGATTGTTCTCCCAGCTGATGAATTCGGGAGTTCGAGTAAACAAATTTTCCTAATCTTTCTGTTCAAGCGCCATCTAC | 0.402
GATGATTGTTCTCCCAGCTGATGAATTACATGTGTCGAGTAAACAAATTTTCCTAATCTTTCTGTTCAAGCGCCATCTAC | 1.01
GATGATTGTTCTCCCAGCTGATGAATTCCAAAGTTCGAGTAAACAAATTTTCCTAATCTTTCTGTTCAAGCGCCATCTAC | 0.203
GATGATTGTTCTCCCAGCTGATGAATTCCTATTTTCGAGTAAACAAATTTTCCTAATCTTTCTGTTCAAGCGCCATCTAC | 0.551
GATGATTGTTCTCCCAGCTGATGAATTCACAGCGTCGAGTAAACAAATTTTCCTAATCTTTCTGTTCAAGCGCCATCTAC | 0.437
GATGATTGTTCTCCCAGCTGATGAATTCCCGGGCTCGAGTAAACAAATTTTCCTAATCTTTCTGTTCAAGCGCCATCTAC | 0.168
GATGATTGTTCTCCCAGCTGATGAATTCGTTGAGTCGAGTAAACAAATTTTCCTAATCTTTCTGTTCAAGCGCCATCTAC | 0.74

Source: paper PMC12820563
